# Laboratory results reported in the supplement of paper PMC4604168 (melanoma cell lines).
# The list shows a part of the results. Many values rest on one well or one pass, so single values are uncertain.
# System: WM3619
# Test: cell count relative to DMSO control; melanoma cells; higher = more viable cells
# Details: library dose: low library concentration; 72 h
# 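Further: cell number obtained by counting DAPI-stained nuclei in high-throughput microscope images with image analysis software, screen run in 1,536-well plates.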
row,Structure (SMILES),cell count [%]
1,"CC[C@]1(O)C[C@H]2CN(CCc3c([nH]c4ccccc34)[C@@](C(=O)OC)(c3cc4c(cc3OC)N(C=O)[C@H]3[C@@](O)(C(=O)OC)[C@H](OC(C)=O)[C@]5(CC)C=CCN6CC[C@]43[C@@H]65)C2)C1 [vincristine] + CS(=O)(=O)c1ccc(C(=O)Nc2ccc(Cl)c(-c3ccccn3)c2)c(Cl)c1 [vismodegib] (first compound 0.0001 µM, partner dose 1 µM)",53.5
2,"CC[C@]1(O)C[C@H]2CN(CCc3c([nH]c4ccccc34)[C@@](C(=O)OC)(c3cc4c(cc3OC)N(C=O)[C@H]3[C@@](O)(C(=O)OC)[C@H](OC(C)=O)[C@]5(CC)C=CCN6CC[C@]43[C@@H]65)C2)C1 [vincristine] + CN(NC(=O)CC(=O)NN(C)C(=S)c1ccccc1)C(=S)c1ccccc1 [STA4783] (first compound 0.0001 µM, partner dose 0.006 µM)",37.1
3,"N#CC[C@H](C1CCCC1)n1cc(-c2ncnc3[nH]ccc23)cn1 [ruxolitinib] + O=C(CCCCCCC(=O)Nc1ccccc1)NO [vorinostat] (first compound 1 µM, partner dose 0.08 µM)",93.1
4,"CC[C@]1(O)C[C@H]2CN(CCc3c([nH]c4ccccc34)[C@@](C(=O)OC)(c3cc4c(cc3OC)N(C=O)[C@H]3[C@@](O)(C(=O)OC)[C@H](OC(C)=O)[C@]5(CC)C=CCN6CC[C@]43[C@@H]65)C2)C1 [vincristine] + Cc1cn(-c2cc(NC(=O)c3ccc(C)c(Nc4nccc(-c5cccnc5)n4)c3)cc(C(F)(F)F)c2)cn1 [nilotinib] (first compound 0.0001 µM, partner dose 0.2 µM)",39.5
5,"N#CC[C@H](C1CCCC1)n1cc(-c2ncnc3[nH]ccc23)cn1 [ruxolitinib] + COc1cc([C@@H]2c3cc4c(cc3[C@@H](O[C@@H]3O[C@@H]5CO[C@@H](C)O[C@H]5[C@H](O)[C@H]3O)[C@H]3COC(=O)[C@H]23)OCO4)cc(OC)c1O [etoposide] (first compound 1 µM, partner dose 0.02 µM)",109
6,"CC[C@]1(O)C[C@H]2CN(CCc3c([nH]c4ccccc34)[C@@](C(=O)OC)(c3cc4c(cc3OC)N(C=O)[C@H]3[C@@](O)(C(=O)OC)[C@H](OC(C)=O)[C@]5(CC)C=CCN6CC[C@]43[C@@H]65)C2)C1 [vincristine] + Cn1sc(=O)n(Cc2ccccc2)c1=O [TDZD-8] (first compound 0.0001 µM, partner dose 0.4 µM)",67.5
7,"N#CC[C@H](C1CCCC1)n1cc(-c2ncnc3[nH]ccc23)cn1 [ruxolitinib] + Oc1cc(-c2nc(-c3ccccc3)[nH]c2-c2ccncc2)ccc1Cl [L779450] (first compound 1 µM, partner dose 0.2 µM)",105
8,"CC[C@]1(O)C[C@H]2CN(CCc3c([nH]c4ccccc34)[C@@](C(=O)OC)(c3cc4c(cc3OC)N(C=O)[C@H]3[C@@](O)(C(=O)OC)[C@H](OC(C)=O)[C@]5(CC)C=CCN6CC[C@]43[C@@H]65)C2)C1 [vincristine] + C[C@@H](Oc1cc(-c2cnn(C3CCNCC3)c2)cnc1N)c1c(Cl)ccc(F)c1Cl [Crizotinib] (first compound 0.0001 µM, partner dose 0.2 µM)",66.8
9,"CC[C@]1(O)C[C@H]2CN(CCc3c([nH]c4ccccc34)[C@@](C(=O)OC)(c3cc4c(cc3OC)N(C=O)[C@H]3[C@@](O)(C(=O)OC)[C@H](OC(C)=O)[C@]5(CC)C=CCN6CC[C@]43[C@@H]65)C2)C1 [vincristine] + CCN(CC)CCNC(=O)c1c(C)[nH]c(/C=C2\C(=O)Nc3ccc(F)cc32)c1C [sunitinib] (first compound 0.0001 µM, partner dose 0.4 µM)",104
10,"Cc1cc(Nc2cc(N3CCN(C)CC3)nc(Sc3ccc(NC(=O)C4CC4)cc3)n2)n[nH]1 [Tozasertib] + C=CCn1c(=O)c2cnc(Nc3ccc(N4CCN(C)CC4)cc3)nc2n1-c1cccc(C(C)(C)O)n1 [MK1775] (first compound 0.006 µM, partner dose 0.02 µM)",127
11,"CC[C@]1(O)C[C@H]2CN(CCc3c([nH]c4ccccc34)[C@@](C(=O)OC)(c3cc4c(cc3OC)N(C=O)[C@H]3[C@@](O)(C(=O)OC)[C@H](OC(C)=O)[C@]5(CC)C=CCN6CC[C@]43[C@@H]65)C2)C1 [vincristine] + CCN(CC)CCCCNc1ncc2cc(-c3cc(OC)cc(OC)c3)c(NC(=O)NC(C)(C)C)nc2n1 [PD173074] (first compound 0.0001 µM, partner dose 0.1 µM)",82.4
12,"N#CC[C@H](C1CCCC1)n1cc(-c2ncnc3[nH]ccc23)cn1 [ruxolitinib] + CCN(CC)CCNC(=O)c1c(C)[nH]c(/C=C2\C(=O)Nc3ccc(F)cc32)c1C [sunitinib] (first compound 1 µM, partner dose 0.4 µM)",120
13,"Cc1cc(Nc2cc(N3CCN(C)CC3)nc(Sc3ccc(NC(=O)C4CC4)cc3)n2)n[nH]1 [Tozasertib] + Cn1sc(=O)n(Cc2ccccc2)c1=O [TDZD-8] (first compound 0.006 µM, partner dose 0.4 µM)",106
14,"N#CC[C@H](C1CCCC1)n1cc(-c2ncnc3[nH]ccc23)cn1 [ruxolitinib] + CC[C@]1(O)C[C@H]2CN(CCc3c([nH]c4ccccc34)[C@@](C(=O)OC)(c3cc4c(cc3OC)N(C=O)[C@H]3[C@@](O)(C(=O)OC)[C@H](OC(C)=O)[C@]5(CC)C=CCN6CC[C@]43[C@@H]65)C2)C1 [vincristine] (first compound 1 µM, partner dose 0.0001 µM)",62.2
15,"CC[C@]1(O)C[C@H]2CN(CCc3c([nH]c4ccccc34)[C@@](C(=O)OC)(c3cc4c(cc3OC)N(C=O)[C@H]3[C@@](O)(C(=O)OC)[C@H](OC(C)=O)[C@]5(CC)C=CCN6CC[C@]43[C@@H]65)C2)C1 [vincristine] + OCc1c[nH]c2ccccc12 [Indole-3-carbinol] (first compound 0.0001 µM, partner dose 0.8 µM)",43.5
16,"Cc1cc(Nc2cc(N3CCN(C)CC3)nc(Sc3ccc(NC(=O)C4CC4)cc3)n2)n[nH]1 [Tozasertib] + Cc1nc(Nc2ncc(C(=O)Nc3c(C)cccc3Cl)s2)cc(N2CCN(CCO)CC2)n1 [dasatanib] (first compound 0.006 µM, partner dose 0.004 µM)",75.9
17,"N#CC[C@H](C1CCCC1)n1cc(-c2ncnc3[nH]ccc23)cn1 [ruxolitinib] + O=C(O)[C@@H]1[O][Sb](=[O])([O][Sb]2(=[O])[O][C@H]([C@H](O)CO)[C@H](O)[C@H](C(=O)O)[O]2)[O][C@H]([C@H](O)CO)[C@@H]1O [stibogluconate] (first compound 1 µM, partner dose 2 µM)",93.7
18,"CC[C@]1(O)C[C@H]2CN(CCc3c([nH]c4ccccc34)[C@@](C(=O)OC)(c3cc4c(cc3OC)N(C=O)[C@H]3[C@@](O)(C(=O)OC)[C@H](OC(C)=O)[C@]5(CC)C=CCN6CC[C@]43[C@@H]65)C2)C1 [vincristine] + O=C(/C=C/c1cccnc1)NCCCCC1CCN(C(=O)c2ccccc2)CC1 [FK866] (first compound 0.0001 µM, partner dose 0.01 µM)",52.2
19,"N#CC[C@H](C1CCCC1)n1cc(-c2ncnc3[nH]ccc23)cn1 [ruxolitinib] + COc1ccc(-c2ccc3c(N4CCOCC4)nc(N4C[C@@H](C)O[C@@H](C)C4)nc3n2)cc1CO [KU0063794] (first compound 1 µM, partner dose 0.02 µM)",82.1
20,"CC[C@]1(O)C[C@H]2CN(CCc3c([nH]c4ccccc34)[C@@](C(=O)OC)(c3cc4c(cc3OC)N(C=O)[C@H]3[C@@](O)(C(=O)OC)[C@H](OC(C)=O)[C@]5(CC)C=CCN6CC[C@]43[C@@H]65)C2)C1 [vincristine] + Nc1ccn([C@@H]2O[C@H](CO)[C@@H](O)C2(F)F)c(=O)n1 [gemcitabine] (first compound 0.0001 µM, partner dose 0.0004 µM)",62
21,"Cc1cc(Nc2cc(N3CCN(C)CC3)nc(Sc3ccc(NC(=O)C4CC4)cc3)n2)n[nH]1 [Tozasertib] + O=S(=O)(c1ccccc1)N(CC(F)(F)F)c1ccc(C(O)(C(F)(F)F)C(F)(F)F)cc1 [T0901317] (first compound 0.006 µM, partner dose 1.4 µM)",64
22,"CC[C@]1(O)C[C@H]2CN(CCc3c([nH]c4ccccc34)[C@@](C(=O)OC)(c3cc4c(cc3OC)N(C=O)[C@H]3[C@@](O)(C(=O)OC)[C@H](OC(C)=O)[C@]5(CC)C=CCN6CC[C@]43[C@@H]65)C2)C1 [vincristine] + COc1cc2c(Oc3ccc4[nH]c(C)cc4c3F)ncnc2cc1OCCCN1CCCC1 [cediranib] (first compound 0.0001 µM, partner dose 0.4 µM)",105
23,"CC[C@]1(O)C[C@H]2CN(CCc3c([nH]c4ccccc34)[C@@](C(=O)OC)(c3cc4c(cc3OC)N(C=O)[C@H]3[C@@](O)(C(=O)OC)[C@H](OC(C)=O)[C@]5(CC)C=CCN6CC[C@]43[C@@H]65)C2)C1 [vincristine] + CCCCCCCCc1ccc(CCC(N)(CO)CO)cc1 [fingolimod] (first compound 0.0001 µM, partner dose 2 µM)",44.2
